Laboratory results taken from publication PMC3405053.
Where a chain is given by its changes, count along the chain named. These are yes or no findings as the source states them, for the method shown. Binding seen in cells or lysates may run through a third protein. Some binding calls cover weakened binding; strength is not graded here.

Amino acid sequences for entries named in this document (tags omitted). A change or cut given only in a name is not applied to a line headed by its entry. Chains listed by the source or under a name are the forms on record and can include a tag or linker.
UniProt Q9R1E0: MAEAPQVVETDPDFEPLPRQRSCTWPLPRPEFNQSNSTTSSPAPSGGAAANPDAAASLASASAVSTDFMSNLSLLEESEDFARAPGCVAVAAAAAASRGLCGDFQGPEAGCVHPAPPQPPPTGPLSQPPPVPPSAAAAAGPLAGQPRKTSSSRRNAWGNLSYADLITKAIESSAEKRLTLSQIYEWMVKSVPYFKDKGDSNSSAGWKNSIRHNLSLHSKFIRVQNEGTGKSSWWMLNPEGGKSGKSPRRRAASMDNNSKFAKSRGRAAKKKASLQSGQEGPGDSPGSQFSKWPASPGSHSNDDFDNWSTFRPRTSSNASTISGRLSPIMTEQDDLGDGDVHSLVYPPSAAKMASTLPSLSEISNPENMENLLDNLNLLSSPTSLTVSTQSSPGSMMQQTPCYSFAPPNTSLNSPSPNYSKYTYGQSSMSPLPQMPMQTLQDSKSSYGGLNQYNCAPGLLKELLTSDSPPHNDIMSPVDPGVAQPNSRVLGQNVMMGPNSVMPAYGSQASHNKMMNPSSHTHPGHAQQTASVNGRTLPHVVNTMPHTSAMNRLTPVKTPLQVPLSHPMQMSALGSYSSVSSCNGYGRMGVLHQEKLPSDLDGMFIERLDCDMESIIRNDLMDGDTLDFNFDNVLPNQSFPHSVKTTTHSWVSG
FOXO1 9A (ERK phosphorylation resistant FOXO1 mutant) (Q9R1E0, form named): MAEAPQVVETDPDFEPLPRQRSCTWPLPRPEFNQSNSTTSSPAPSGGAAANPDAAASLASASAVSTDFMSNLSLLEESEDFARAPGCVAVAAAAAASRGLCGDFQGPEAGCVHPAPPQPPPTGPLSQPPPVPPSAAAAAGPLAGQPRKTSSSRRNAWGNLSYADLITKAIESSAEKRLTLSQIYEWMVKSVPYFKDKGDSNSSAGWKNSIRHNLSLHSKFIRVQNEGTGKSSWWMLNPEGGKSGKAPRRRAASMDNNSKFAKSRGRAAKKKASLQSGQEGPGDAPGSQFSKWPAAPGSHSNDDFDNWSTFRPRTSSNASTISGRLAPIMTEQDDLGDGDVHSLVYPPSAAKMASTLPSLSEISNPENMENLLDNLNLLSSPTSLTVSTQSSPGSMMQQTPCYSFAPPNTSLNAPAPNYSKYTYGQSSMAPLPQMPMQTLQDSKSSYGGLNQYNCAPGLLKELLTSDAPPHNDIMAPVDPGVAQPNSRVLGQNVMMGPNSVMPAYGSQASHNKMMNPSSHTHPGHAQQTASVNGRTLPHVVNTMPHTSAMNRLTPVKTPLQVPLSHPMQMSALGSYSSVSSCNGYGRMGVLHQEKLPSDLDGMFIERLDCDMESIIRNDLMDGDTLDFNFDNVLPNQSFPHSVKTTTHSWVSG

Key:
[1] = molecular target: T1, MAP kinase phosphatase 3 (MKP-3) wild type (mouse) (UniProt Q9DBB1); test: co-IP; MKP-3 (WT or mutant) and FOXO1 (WT or mutant) co-expressed in Fao hepatoma cells by adenovirus; MKP-3 immunoprecipitated from precleared lysate with MKP-3 antibody-bound Exactra D matrix; western blot
T1 sequence: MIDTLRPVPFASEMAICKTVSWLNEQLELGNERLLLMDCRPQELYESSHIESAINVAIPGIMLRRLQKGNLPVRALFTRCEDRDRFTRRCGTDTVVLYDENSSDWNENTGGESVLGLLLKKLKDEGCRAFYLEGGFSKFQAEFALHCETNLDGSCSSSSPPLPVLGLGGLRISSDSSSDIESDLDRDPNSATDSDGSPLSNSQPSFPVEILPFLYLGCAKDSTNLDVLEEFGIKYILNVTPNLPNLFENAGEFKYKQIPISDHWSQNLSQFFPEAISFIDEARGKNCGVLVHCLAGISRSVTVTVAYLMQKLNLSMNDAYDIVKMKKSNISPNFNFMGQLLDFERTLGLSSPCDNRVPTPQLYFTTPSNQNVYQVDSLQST

MKP-3 1–320 (mouse) = molecular target: T2, MKP-3 1–320 (mouse) (UniProt Q9DBB1); test: as above
T2 sequence: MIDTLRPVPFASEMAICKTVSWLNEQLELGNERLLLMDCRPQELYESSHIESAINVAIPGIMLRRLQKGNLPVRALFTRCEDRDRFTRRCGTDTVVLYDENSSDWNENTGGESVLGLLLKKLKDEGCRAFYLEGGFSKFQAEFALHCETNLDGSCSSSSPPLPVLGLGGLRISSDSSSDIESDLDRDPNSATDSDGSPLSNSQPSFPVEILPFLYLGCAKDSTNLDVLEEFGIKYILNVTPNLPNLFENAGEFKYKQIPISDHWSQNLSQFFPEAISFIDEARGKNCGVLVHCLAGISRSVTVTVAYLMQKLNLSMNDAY

MKP-3 C293S (mouse) = molecular target: T3, MKP-3 C293S (mouse) (UniProt Q9DBB1); test: as above
T3 sequence: T1 sequence with C293S

MKP-3 1–260 (mouse) = molecular target: T4, MKP-3 1–260 (mouse) (UniProt Q9DBB1); test: as above
T4 sequence: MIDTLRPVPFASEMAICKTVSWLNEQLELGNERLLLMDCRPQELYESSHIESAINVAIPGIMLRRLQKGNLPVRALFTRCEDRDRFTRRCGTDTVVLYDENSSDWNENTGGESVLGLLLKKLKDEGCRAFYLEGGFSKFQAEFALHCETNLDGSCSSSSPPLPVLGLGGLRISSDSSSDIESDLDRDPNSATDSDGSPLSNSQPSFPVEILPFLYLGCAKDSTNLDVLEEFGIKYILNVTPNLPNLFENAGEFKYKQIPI

MKP-3 153–381 (mouse) = molecular target: T5, MKP-3 153–381 (mouse) (UniProt Q9DBB1); test: as above
T5 sequence: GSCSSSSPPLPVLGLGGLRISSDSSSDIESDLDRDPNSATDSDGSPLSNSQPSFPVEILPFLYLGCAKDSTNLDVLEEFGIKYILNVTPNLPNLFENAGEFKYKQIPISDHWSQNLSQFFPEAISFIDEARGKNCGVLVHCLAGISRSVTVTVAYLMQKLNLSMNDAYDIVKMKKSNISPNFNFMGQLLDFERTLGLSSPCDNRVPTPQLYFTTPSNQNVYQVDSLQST

MKP-3 1–200 (mouse) = molecular target: T6, MKP-3 1–200 (mouse) (UniProt Q9DBB1); test: as above
T6 sequence: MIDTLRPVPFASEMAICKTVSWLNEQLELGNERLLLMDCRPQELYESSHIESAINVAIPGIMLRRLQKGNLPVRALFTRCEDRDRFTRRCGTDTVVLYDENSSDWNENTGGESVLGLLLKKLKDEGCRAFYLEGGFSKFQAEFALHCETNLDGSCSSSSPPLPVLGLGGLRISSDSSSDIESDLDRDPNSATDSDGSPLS

[2] = molecular target: T7, MKP-3, endogenous in mouse liver (mouse (endogenous in C57BL/6 liver)) (UniProt Q9DBB1); test: co-IP; liver lysates of C57BL/6 mice injected with adenoviruses (GFP or FOXO1 3A, plus shGFP or shMKP-3); MKP-3 immunoprecipitated with MKP-3 antibody-bound Exactra D matrix; western blot for FOXO1, quantified
T7 sequence: T1 sequence

Substance | binding [1] | also measured
FOXO1 1–280 (from UniProt Q9R1E0 1-280) (domain or fragment) | no binding | –
FOXO1 9A (ERK phosphorylation resistant FOXO1 mutant) (from UniProt Q9R1E0 1-652) | no binding | –
FOXO1 1–558 (from UniProt Q9R1E0 1-558) (domain or fragment) | binds weakly | –
FOXO1, endogenous in mouse liver (from UniProt Q9R1E0 1-652) | – | binding [2]: binds

Second part, led by results:

binding [1] | Substance | also measured
no binding | FOXO1 1–360 (from UniProt Q9R1E0 1-360) (domain or fragment) | –
binds | FOXO1 wild type (from UniProt Q9R1E0 1-652) | binding (MKP-3 1–320 (mouse)): binds; binding (MKP-3 C293S (mouse)): binds; binding (MKP-3 1–260 (mouse)): binds; binding (MKP-3 153–381 (mouse)): binds; binding (MKP-3 1–200 (mouse)): no binding
binds weakly | FOXO1 1–456 (from UniProt Q9R1E0 1-456) (domain or fragment) | –
